# Laboratory results published in PubChem BioAssay AID686978 (National Center for Advancing Translational Sciences (NCATS), 2013).
# Out of some 420,000 compounds screened, about 64,000 (15%) were called active. This list was built around the results that the source calls inconclusive (neither active nor inactive); the mix of calls is not that of the screen. Calls come from the whole dose curve; as a rule, active = well fitted inhibition curve with a large enough effect; inconclusive = small, poorly fitted or top-dose-only effect; inactive = flat fitted curve, though single readings scatter. Potencies of inconclusive entries are left out as doubtful fits.
# Test: qHTS for Inhibitors of human tyrosyl-DNA phosphodiesterase 1 (TDP1): qHTS in cells in absence of CPT; note: nearly all actives have a fitted effect of over 55% in size
# Conditions: DT40 Tdp1-/- hTDP1 cells, no CPT, ATP luminescence, 48 h; activity change, negative = growth inhibition: at 46.2 µM (top of the series)
# Procedure, shortened: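 Chicken DT40 Tdp1-/- cells stably complemented with human TDP1 were seeded at 400 cells/well with DMSO in place of 20 nM camptothecin. After compound pinning, cells grew at least 48 hr at 37 °C; viability read by CellTiter-Glo luminescence.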
# % is set by controls: 0 for no effect and ±100 for the full control effect; potency is the fitted concentration of half-maximal effect; tags give direction and shape of the fitted curve.
Compound,Potency,"activity change, negative = growth inhibition"
COc1ccc(C(=O)NCCCN2CCOCC2)cc1Br,inactive,–
COc1cc(/C=N/NC(=O)c2ccc(CN(C)S(=O)(=O)c3ccc(C)cc3)cc2)ccc1O,"inconclusive [inhibitor, single point]",–
NNC(=O)c1sc2nc(N3CCOCC3)c3c(c2c1N)CCCC3,"inconclusive [inhibitor, full curve]",–
CCN(CCCNC(=O)c1cc(Nc2ccc(OC)cc2OC)nc2ccccc12)c1cccc(C)c1,active: 14.6 µM,–
Cc1nc(C)c(C(=O)OCC(=O)N(C)c2ccccc2)s1,inactive,–
Cc1ccc(CCNC(=O)c2c(C)oc3nc(C)nc(N4CCOCC4)c23)cc1,"inconclusive [inhibitor, single point]",–
O=C(CN1CCC(c2nc3ccccc3s2)CC1)N1CCCCC1,"inconclusive [inhibitor, single point]",–
CCCCC1=CC2=CC(=O)C(C)(OC(=O)CC)C(=O)C2=CN1c1ccc(OC)cc1 (configuration not stated),"inconclusive [inhibitor, partial curve]",–
Cc1ccc(O)c(NC(=O)c2cc(-c3ccccc3Cl)on2)c1,"inconclusive [inhibitor, single point]",–
CC(=O)N1CCCc2cc(S(=O)(=O)NCc3ccc(C)cc3)ccc21,active: 13 µM,–
CN1CC(=O)Nc2ccc(Br)cc2C1=O,inactive,–
COc1ccc(-c2ccc3c(c2)S(=O)(=O)c2cccc(C(=O)NC4CCCCC4)c2C3=O)cc1OC,active: 23.1 µM,–
CC1=C(C(=O)N(C(C)C)C(C)C)CC(CC(=O)NCCCN(C)C)C(=O)N1CCC1=CCCCC1 (configuration not stated),inactive,–
CCOC(=O)Nc1ccc2c(c1)N(C(=O)N1CCN(C)CC1)c1ccccc1CC2,"inconclusive [inhibitor, partial curve, poor fit]",–
Cc1nc2ccc(C(=O)N3CCN(C(=O)c4ccco4)CC3)cn2c1N(C)C(=O)CCc1ccccc1,inactive,–
CC1=NN(C(=O)COc2ccc(C)c(C)c2)C(O)(c2ccc(Cl)cc2)C1 (configuration not stated),active: 14.6 µM,–
CC(C)=CCc1cc([C@@H]2COc3c(ccc4c3C=CC(C)(C)O4)C2)c(O)cc1O,"inconclusive [inhibitor, single point]",–
Cc1cc2nc(SCCOC(=O)Nc3ccccc3)nc(C)c2cc1C,"inconclusive [inhibitor, single point]",–
CCN(c1ccccc1)S(=O)(=O)c1cccc(C(=O)OCc2nc3sc(C)c(C)c3c(=O)[nH]2)c1,inactive,–
COc1ccccc1CCNC(=O)c1cc(-c2ccccn2)nc2ccccc12,"inconclusive [inhibitor, single point]",–
Cc1ccc(NC(=O)c2c(-c3c(F)cccc3Cl)noc2C)cc1F,–,inconclusive: -36.8% [inhibitor]
COc1cc2[nH]c(=S)nc(NCc3cccc(Cl)c3)c2cc1OC,"inconclusive [inhibitor, single point]",–
COc1cc(NC(=O)CN2C(=O)NC(C)(c3ccc4ccccc4c3)C2=O)c(C)cc1[N+](=O)[O-] (configuration not stated),"inconclusive [inhibitor, single point]",–
CCn1c(SCC(=O)NC2CCCC2)nc2c(c1=O)SCC2,inactive,–

Compound,Potency,"activity change, negative = growth inhibition"
Cc1cccc(Cn2c(=O)n(Cc3ccc4c(c3)OCO4)c(=O)c3oc4ccccc4c32)c1,inactive,–
Cc1cc(F)ccc1NC(=O)c1cnccn1,inactive,–
Cc1ccc(S(=O)(=O)C(CNC(=O)Cc2ccc(Cl)cc2)c2cccs2)cc1 (configuration not stated),"inconclusive [inhibitor, single point]",–
CC(CCc1ccccc1)NC(=O)C1CCN(C(=O)c2sccc2-n2cccc2)CC1 (configuration not stated),active: 20.6 µM,–
Cc1occc1-c1nnc(SCC(=O)Nc2ccc(F)cc2)n1Cc1ccccc1,"inconclusive [inhibitor, partial curve, poor fit]",–
CC(C)C(=O)Nc1cccc(C(=O)Nc2nnc(CC(C)(C)C)s2)c1,"inconclusive [inhibitor, single point]",–
CCOc1cccc(/C=N/NC(=S)NCCN2CCOCC2)c1O,active: 2.91 µM,–
O=C(CSc1nc2ccccc2n1CCc1ccccc1)c1ccc(O)c(O)c1,active: 16.4 µM,–
CC(C)NC(=O)N1CC[C@@]2(CCCN(C(=O)c3ccco3)C2)C1,inactive,–
Cc1c(C)c2c(OCC(=O)NCc3ccccn3)cc3c(c2oc1=O)CCC(C)(C)O3,active: 16.4 µM,–
COc1ccc(NC(=O)c2cc(S(=O)(=O)N3CCOCC3)cs2)cc1,inactive,–
CC(C)c1csc(CN2CCCC(CNC(=O)c3cccc4ccccc34)C2)n1 (configuration not stated),"inconclusive [inhibitor, single point]",–
CCOCCCNC(=O)c1c(NC(=O)c2cc(=O)c3ccccc3o2)sc2c1CCC2,inactive,–
COc1ccccc1N1CCN(C(=O)Nc2cn(CC(C)C)c(=O)c3ccccc23)CC1,"inconclusive [inhibitor, partial curve]",–
CC1=CC(C)(C)N2C(=O)C3(C(C#N)=C(N)Oc4cc(C)oc(=O)c43)c3cc(C)cc1c32 (configuration not stated),inactive,–
COc1ccc(NCC(=O)N/N=C2\CCCC(C)C2)cc1 (configuration not stated),inactive,–
O=C1NC(=O)C2(COC(c3ccccc3Cl)OC2)S1 (configuration not stated),inactive,–
CCOc1ccccc1-c1nc(-c2ccc(NC(=O)Cc3ccccc3OC)cc2)no1,"inconclusive [inhibitor, single point]",–
c1ccc(OCCNc2ccn3nc(-c4cccs4)cc3n2)cc1,"inconclusive [inhibitor, full curve, poor fit]",–
CC(C)(NC(=O)c1cc(Cl)c2ccccc2c1O)C(=O)O,inactive,–
N#CCC(=O)Nc1ccc(C(=O)OCC(=O)N=c2sccn2Cc2ccccc2Cl)cc1,"inconclusive [inhibitor, single point]",–
O=C(O)CSCC(=O)Nc1ccc(Cl)cc1C(F)(F)F,inactive,–
Cc1ccc(CNc2nc3ccccc3n2C)cc1,"inconclusive [inhibitor, single point]",–
O=c1c2cnn(-c3ccc(F)cc3)c2ncn1Cc1cccnc1,"inconclusive [inhibitor, partial curve, poor fit]",–

Compound,Potency,"activity change, negative = growth inhibition"
COC(=O)c1ccc(NC(=O)Cn2c(=O)nc(-c3ccccc3)c3ccccc32)cc1,"inconclusive [inhibitor, single point]",–
O=C(NCC(=O)N1CCN(Cc2ccccc2)CC1)c1cccs1,inactive,–
O=C(C1CC1)N1N=C(c2ccccc2)CC1(O)C(F)(F)F (configuration not stated),inactive,–
CC[C@]12c3[nH]c4ccccc4c3CCN1C(=O)C(CC(=O)NCCC1=CCCCC1)C[C@@H]2C(=O)N1CCN(C(=O)C2CC2)CC1 (some centres not stated),active: 16.4 µM,–
Brc1ccccc1-c1nnc2sc(-c3ccc4c(c3)OCCO4)nn12,active: 23.1 µM,–
Cc1cc(C)cc(N(CCC#N)C(=O)COC(=O)c2ccccc2SCC(=O)N2CCCC2)c1,"inconclusive [inhibitor, single point]",–
COc1ccc(-c2ccc(C#N)c(SCC(=O)NCCc3ccccc3)n2)cc1OC,"inconclusive [inhibitor, partial curve]",–
CCN(CC)C(=O)c1cc2sc3ccccc3c2s1,"inconclusive [inhibitor, single point]",–
Cc1ccc(C)c(N2CCN(C(=O)CC3Sc4ccccc4NC3=O)CC2)c1 (configuration not stated),active: 16.4 µM,–
Cc1csc(NC(=O)c2cccc(C)c2C)n1,"inconclusive [inhibitor, single point]",–
Cc1cccc(Cn2c(N(C)Cc3ccccc3)nc3c2c(=O)[nH]c(=O)n3C)c1,"inconclusive [inhibitor, single point]",–
O=C(NCc1ccc2c(c1)OCO2)C(=O)NCC1OCCN1S(=O)(=O)c1ccccc1 (configuration not stated),"inconclusive [inhibitor, single point]",–
COc1ccc(NC(=O)c2c(NCc3cccs3)sc3c2CCCC3)cc1,active: 20.6 µM,–
Cc1ccc(OCC(=O)N2CCc3ccccc3C2)cc1,"inconclusive [inhibitor, single point]",–
O=C(NC(=S)Nc1ccc(CN2CCOCC2)cc1)c1cccc(F)c1,–,inconclusive: -31.2% [inhibitor]
CC(=O)Nc1ccc(S(=O)(=O)Nc2cccc(-c3csc(C)n3)c2)cc1,"inconclusive [inhibitor, partial curve]",–
CC(C)c1ccc(NC(=O)Nc2csc3c2CCCC3)cc1,"inconclusive [inhibitor, single point]",–
O=C(Nc1ccc(C(=O)OCc2cc(=O)n3c4c(sc3n2)CCCC4)cc1)c1ccc(Cl)cc1,–,inconclusive: -32.8% [inhibitor]
CCn1c(CNC(=O)c2ccc(F)cc2)cc2ccccc21,"inconclusive [inhibitor, single point]",–
Cc1ccc(-n2c(SCC(=O)NNC(=S)Nc3ccccc3)nc3ccccc3c2=O)cc1,–,inconclusive: -32.1% [inhibitor]
CCCN(C(=O)CCCSc1nc2ccccc2[nH]1)c1c(N)n(Cc2ccccc2)c(=O)[nH]c1=O,inactive,–
COc1ccc2c(c1OC)C(=O)N1c3ccccc3C(=O)N(c3ccccc3)C21 (configuration not stated),active: 9.2 µM,–
C[C@@]12C(=O)N(Cc3ccc(-c4ccccc4)cc3)CC(=O)N1[C@H](/C=C/c1ccccc1)[C@@H]1C(=O)N(c3ccccc3)C(=O)[C@@H]12,active: 23.1 µM,–
COc1cc(/C=N/NC(=O)c2nc(C)cc(C)n2)ccc1O,inactive,–
